# Experimental data published in the supplement of paper PMC8728848.
# Some of the results follow.
# B1: GS13686A-pdi-553-26-553 (Parabacteroides distasonis) (protein)
# chain: NENPDKPTDDVNYNMNEPRLASTLRGGLIIEGNVEQRLKPLQIDFYSQMTVDGGGWGTKNYIQDDEWNNLVWEEYLKQIASINIVIRSLTEKDKDAYANTIAFARIWRVYVHTLAADKFGPMPFPAYEIVEANPPYKSLKDIYDEYFRELDAAINGFNDSAQPIFSDAGIDLIYKNDVSKWKRFANSLRLRLAVRLTEVDQEKCIAEANAAISSPAGLISDKADNAYMPPKADGSWGQDYNYTMFQITWSGPICMSKSVEKLVTNIGGVAWPQGVVNQTSGVAVSSVHPEKVDPRAPKIFQPGIENGDWKGLVYGPKAEEANTGIYQSKQCAELGFIIKDGYPYKSRPYDLFLSEEVHFLKAELYARGFIAGDAKSEYEAGVRASFATWGVTSEVDDYLTSTEKNEAGTSARYDDQQGAGNTALEKIITQKYIAGIPDLAQEGWNDKRRLNLPRLDVAVYRDQAVYNNNDKDILKSANFIKRMRYPTKESLINATEYEKGKSMLGGKGDIVSTPLWWDKNSNYCTSSK
# Legend:
# Experiment in all cases: glycan array binding signal (z-score within array); higher = stronger binding
# Conditions in all cases: glycan notation: IUPAC condensed, linker removed
# [1] = target: Gal(b1-4)GlcNAc(b1-6)GalNAc
# Method in brief: (§1)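 The Consortium for Functional Glycomics database supplied 3228 glycan arrays, of which those lacking an available protein sequence were dropped. The binding signal, a within-array Z-score, was averaged across arrays of the same protein sequence and across linkers. Negative scores can be read as non-binding.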
# [2] = target: Gal(b1-4)GlcNAc(b1-6)[Gal(b1-3)]GalNAc
# Method in brief: as §1
# [3] = target: Gal(b1-4)GlcNAc(b1-6)[Gal(b1-4)GlcNAc(b1-3)]GalNAc
# Method in brief: as §1
# Gal(b1-4)GlcNAc6P = target: Gal(b1-4)GlcNAc6P
# Method in brief: as §1
# Gal(b1-6)Gal = target: Gal(b1-6)Gal
# Method in brief: as §1
# Gal3S(b1-3)GalNAc = target: Gal3S(b1-3)GalNAc
# Method in brief: as §1
# Gal3S(b1-3)GlcNAc = target: Gal3S(b1-3)GlcNAc
# Method in brief: as §1
# [4] = target: Gal3S(b1-3)[Fuc(a1-4)]GlcNAc
# Method in brief: as §1
# Gal3S(b1-4)Glc = target: Gal3S(b1-4)Glc
# Method in brief: as §1
# Gal3S(b1-4)Glc6S = target: Gal3S(b1-4)Glc6S
# Method in brief: as §1
# Gal3S(b1-4)GlcNAc = target: Gal3S(b1-4)GlcNAc
# Method in brief: as §1
# [5] = target: Gal3S(b1-4)[Fuc(a1-3)]Glc6S
# Method in brief: as §1
# [6] = target: Gal3S(b1-4)[Fuc(a1-3)]GlcNAc
# Method in brief: as §1
# [7] = target: Gal3S(b1-4)[Fuc(a1-3)]GlcNAc6S
# Method in brief: as §1
# Gal3S4S(b1-4)GlcNAc = target: Gal3S4S(b1-4)GlcNAc
# Method in brief: as §1
# Gal3S6S(b1-4)GlcNAc = target: Gal3S6S(b1-4)GlcNAc
# Method in brief: as §1
# Gal3S6S(b1-4)GlcNAc6S = target: Gal3S6S(b1-4)GlcNAc6S
# Method in brief: as §1
# Gal4S(b1-4)GlcNAc = target: Gal4S(b1-4)GlcNAc
# Method in brief: as §1
# Gal4S6S(b1-4)GlcNAc = target: Gal4S6S(b1-4)GlcNAc
# Method in brief: as §1
# Gal6P(b1-4)GlcNAc = target: Gal6P(b1-4)GlcNAc
# Method in brief: as §1
# Gal6S(b1-3)GlcNAc = target: Gal6S(b1-3)GlcNAc
# Method in brief: as §1
# Gal6S(b1-3)GlcNAc6S = target: Gal6S(b1-3)GlcNAc6S
# Method in brief: as §1
# Gal6S(b1-4)Glc = target: Gal6S(b1-4)Glc
# Method in brief: as §1
binder,measurement,setting,value
B1,glycan array binding signal (z-score),[1],-0.056
same,glycan array binding signal (z-score),[2],0.008
same,glycan array binding signal (z-score),[3],-0.002
same,glycan array binding signal (z-score),Gal(b1-4)GlcNAc6P,0.076
same,glycan array binding signal (z-score),Gal(b1-6)Gal,-0.113
same,glycan array binding signal (z-score),Gal3S(b1-3)GalNAc,-0.419
same,glycan array binding signal (z-score),Gal3S(b1-3)GlcNAc,-0.284
same,glycan array binding signal (z-score),[4],-0.303
same,glycan array binding signal (z-score),Gal3S(b1-4)Glc,-0.293
same,glycan array binding signal (z-score),Gal3S(b1-4)Glc6S,-0.181
same,glycan array binding signal (z-score),Gal3S(b1-4)GlcNAc,0.125
same,glycan array binding signal (z-score),[5],0.425
same,glycan array binding signal (z-score),[6],0.256
same,glycan array binding signal (z-score),[7],0.003
same,glycan array binding signal (z-score),Gal3S4S(b1-4)GlcNAc,0.177
same,glycan array binding signal (z-score),Gal3S6S(b1-4)GlcNAc,-0.13
same,glycan array binding signal (z-score),Gal3S6S(b1-4)GlcNAc6S,-0.19
same,glycan array binding signal (z-score),Gal4S(b1-4)GlcNAc,0.254
same,glycan array binding signal (z-score),Gal4S6S(b1-4)GlcNAc,-0.295
same,glycan array binding signal (z-score),Gal6P(b1-4)GlcNAc,-0.36
same,glycan array binding signal (z-score),Gal6S(b1-3)GlcNAc,22.6
same,glycan array binding signal (z-score),Gal6S(b1-3)GlcNAc6S,0.093
same,glycan array binding signal (z-score),Gal6S(b1-4)Glc,0.432
